The record followed here is PMC5892938.

Some of the results follow. At the low end of the ranking, values are background and their order means little.

For the assay, the target named is GST-SBP-SLBP (stem-loop binding protein) (UniProt Q14493). The assay can be described thus: targeted RNA Bind-n-Seq.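 Note: DESeq read counts versus GST-SBP nonspecific binding control pulldown.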 The settings on record: RBNS binding buffer: 25 mM Tris pH 7.5, 150 mM KCl, 3 mM MgCl2, 0.1% Tween, 0.5 mg/mL BSA, 1 mM DTT; 27 nM protein, 750 pM RNA pool; temperature not stated; high values mean tight binding.
As to “GGUCACGUCUCAAUCAACUCUUCGUCAGGAGUUUCCUCCUGCAUAUUCAACAGCUCGCAGUCAAG”, the binding signal (log2 fold change) was 0.0823.

Take “GGUCACGUCUCAAUCAACUCAAUUCCAGGAGUUUGCUCCUGUAUUCUCAACAGCUCGCAGUCAAG”: the binding signal (log2 fold change) was determined as 0.00483. Consider “GGUCACGUCUCAAUCAACUCAUCCGAGGGGGGGAAAACCCCUUUACCCUCACAAUCAACAGCUCGCAGUCAAG”, for which the binding signal (log2 fold change) is -0.0066.

Turning to “GGUCACGUCUCAAUCAACUCUUUUUCAGGAGUUUCCUCCUGUAUUUUCAACAGCUCGCAGUCAAG”, the binding signal (log2 fold change) was -0.0781. Take “GGUCACGUCUCAAUCAACUCUAAAGAGGGGGGGAAAACCCCUUUGCCCUCAAUCUCAACAGCUCGCAGUCAAG”: the binding signal (log2 fold change) is -0.121. The same measure for “GGUCACGUCUCAAUCAACUCUACUUCAGGAGUUUCCUCCUGUAUUCUCAACAGCUCGCAGUCAAG”: 0.0692; for “GGUCACGUCUCAAUCAACUCAUUUCCCAGGGAAAGCCCUGGUUAUUUCAACAGCUCGCAGUCAAG”: -0.00142. Regarding “GGUCACGUCUCAAUCAACUCAUUUUCAGGAGUUUACUCCUGCUAACUCAACAGCUCGCAGUCAAG”, the binding signal (log2 fold change) was found to be 0.167.

As for “GGUCACGUCUCAAUCAACUCAUUAGAGGGGGGGAAAACCCCUUUGCCCUCACAUUCAACAGCUCGCAGUCAAG”, the binding signal (log2 fold change) was 0.0114. The same measure for “GGUCACGUCUCAAUCAACUCUAUCUCAGGAGUUUCCUCCUGUUUUUUCAACAGCUCGCAGUCAAG”: 0.17. “GGUCACGUCUCAAUCAACUCAUCCUCCAGGGAAACCCCUGGUUAUUUCAACAGCUCGCAGUCAAG”: the binding signal (log2 fold change) was -0.0566. As for “GGUCACGUCUCAAUCAACUCAAAUGAGGGGGGGAAAACCCCUUUACCCUCCAAUUCAACAGCUCGCAGUCAAG”, the binding signal (log2 fold change) is -0.175. With “GGUCACGUCUCAAUCAACUCUUUUUCAGGAGUUUCCUCCUGUAAUUUCAACAGCUCGCAGUCAAG”, the binding signal (log2 fold change) was 0.0153. The same measure for “GGUCACGUCUCAAUCAACUCUUCCCCCAGGGAAACCCCUGGCUUUCUCAACAGCUCGCAGUCAAG”: 0.0336; for “GGUCACGUCUCAAUCAACUCUUCAGAGGGGGGGAAAACCCCUUUGCCCUCAAAUUCAACAGCUCGCAGUCAAG”: 0.196; for “GGUCACGUCUCAAUCAACUCUACUCCCAGGGAAAUCCCUGGUUUUCUCAACAGCUCGCAGUCAAG”: 0.0802. Under “GGUCACGUCUCAAUCAACUCAAGUCCCAGGGAAAACCCUGGUAAAUUCAACAGCUCGCAGUCAAG” stands 0.0159. On to “GGUCACGUCUCAAUCAACUCAGUCUCAGGAGUUUACUCCUGCUUAUUCAACAGCUCGCAGUCAAG”, for which the binding signal (log2 fold change) is 0.314. For the sequence “GGUCACGUCUCAAUCAACUCAUUUUCAGGAGUUUGCUCCUGCAUUCUCAACAGCUCGCAGUCAAG”, the binding signal (log2 fold change) was found to be 0.125. As for “GGUCACGUCUCAAUCAACUCAGUUUCCAGGGAAACCCCUGGCAUAUUCAACAGCUCGCAGUCAAG”, the binding signal (log2 fold change) worked out at 0.0438. For “GGUCACGUCUCAAUCAACUCCCAAGAGGGGGGGAAAACCCCUUUGCCCUCAUUUUCAACAGCUCGCAGUCAAG”, the binding signal (log2 fold change) is -0.383. “GGUCACGUCUCAAUCAACUCGCAAGAGGGGGGGAAAACCCCUUUACCCUCAACAUCAACAGCUCGCAGUCAAG”: the binding signal (log2 fold change) is -0.166. Under “GGUCACGUCUCAAUCAACUCUUCUUCCAGGGAAAACCCUGGCUAUGUCAACAGCUCGCAGUCAAG” stands 0.0846; under “GGUCACGUCUCAAUCAACUCAUCAGAGGGGGGGAAAACCCCUUUGCCCUCAUUAUCAACAGCUCGCAGUCAAG”, -0.0478. As for “GGUCACGUCUCAAUCAACUCAUUUCCCAGGGAAAACCCUGGCUUUUUCAACAGCUCGCAGUCAAG”, the binding signal (log2 fold change) was -0.151. For the sequence “GGUCACGUCUCAAUCAACUCAUCCCCAGGAGUUUUCUCCUGUAUAUUCAACAGCUCGCAGUCAAG”, the binding signal (log2 fold change) worked out at 0.137. For the sequence “GGUCACGUCUCAAUCAACUCUUACGAGGGGGGGAAAACCCCUUUACCCUCUUUCUCAACAGCUCGCAGUCAAG”, the binding signal (log2 fold change) was 0.0336. As to “GGUCACGUCUCAAUCAACUCAUCGUCCAGGGAAAGCCCUGGCUUUUUCAACAGCUCGCAGUCAAG”, the binding signal (log2 fold change) came to 0.162.

For “GGUCACGUCUCAAUCAACUCUUCUUCCAGGGAAAGCCCUGGUAUAUUCAACAGCUCGCAGUCAAG”, the binding signal (log2 fold change) was 0.0314. The same measure for “GGUCACGUCUCAAUCAACUCUAUUUCCAGGGAAAUCCCUGGCAUGUUCAACAGCUCGCAGUCAAG”: 0.133; for “GGUCACGUCUCAAUCAACUCUAUCUCCAGGGAAAACCCUGGUAAAUUCAACAGCUCGCAGUCAAG”: -0.277; for “GGUCACGUCUCAAUCAACUCUAUUCCAGGAGUUUCCUCCUGCUAAUUCAACAGCUCGCAGUCAAG”: -0.113. As to “GGUCACGUCUCAAUCAACUCUAUUUCCAGGGAAAGCCCUGGCUUUCUCAACAGCUCGCAGUCAAG”, the binding signal (log2 fold change) is -0.318. Consider “GGUCACGUCUCAAUCAACUCAUCGUCAGGAGUUUUCUCCUGUUUAUUCAACAGCUCGCAGUCAAG”, for which the binding signal (log2 fold change) is -0.0962.

Take “GGUCACGUCUCAAUCAACUCAUUUCCCAGGGAAAACCCUGGCUUUCUCAACAGCUCGCAGUCAAG”: the binding signal (log2 fold change) came to 0.114. For “GGUCACGUCUCAAUCAACUCUUCCUCAGGAGUUUUCUCCUGUAUUCUCAACAGCUCGCAGUCAAG”, the binding signal (log2 fold change) is -0.0396. Consider “GGUCACGUCUCAAUCAACUCUUCUCCAGGAGUUUCCUCCUGUUUAUUCAACAGCUCGCAGUCAAG”, for which the binding signal (log2 fold change) is 0.0101. As for “GGUCACGUCUCAAUCAACUCAGUCCCAGGAGUUUACUCCUGCAAAUUCAACAGCUCGCAGUCAAG”, the binding signal (log2 fold change) was -0.0653.

Turning to “GGUCACGUCUCAAUCAACUCAUCCCCCAGGGAAACCCCUGGUAUUCUCAACAGCUCGCAGUCAAG”, the binding signal (log2 fold change) is 0.14. Regarding “GGUCACGUCUCAAUCAACUCAAUCGCAGGAGUUUUCUCCUGGUAUCUCAACAGCUCGCAGUCAAG”, the binding signal (log2 fold change) is -0.0826.

Consider “GGUCACGUCUCAAUCAACUCGUUUUCAGGAGUUUUCUCCUGUUUUCUCAACAGCUCGCAGUCAAG”, for which the binding signal (log2 fold change) was found to be 0.053. Turning to “GGUCACGUCUCAAUCAACUCAUUUUCAGGAGUUUACUCCUGCAUUUUCAACAGCUCGCAGUCAAG”, the binding signal (log2 fold change) was -0.136. In the case of “GGUCACGUCUCAAUCAACUCCUCAGAGGGGGGGAAAACCCCUUUACCCUCCUUAUCAACAGCUCGCAGUCAAG”, the binding signal (log2 fold change) turned out to be 0.431. Consider “GGUCACGUCUCAAUCAACUCUUACGAGGGGGGGAAAACCCCUUUACCCUCAUUCUCAACAGCUCGCAGUCAAG”, for which the binding signal (log2 fold change) amounted to 0.166. The same measure for “GGUCACGUCUCAAUCAACUCUAUUUCCAGGGAAACCCCUGGUAUACUCAACAGCUCGCAGUCAAG”: 0.0287; for “GGUCACGUCUCAAUCAACUCUUUUCCAGGAGUUUCCUCCUGUUUUUUCAACAGCUCGCAGUCAAG”: -0.0353. On to “GGUCACGUCUCAAUCAACUCUUUAGAGGGGGGGAAAACCCCUUUACCCUCACAUUCAACAGCUCGCAGUCAAG”, for which the binding signal (log2 fold change) is -0.184. As for “GGUCACGUCUCAAUCAACUCAAUUUCAGGAGUUUCCUCCUGCUAUCUCAACAGCUCGCAGUCAAG”, the binding signal (log2 fold change) was -0.0542. In the case of “GGUCACGUCUCAAUCAACUCUUCUUCCAGGGAAAUCCCUGGUAAUCUCAACAGCUCGCAGUCAAG”, the binding signal (log2 fold change) was determined as 0.043.

As to “GGUCACGUCUCAAUCAACUCAUCUCCAGGAGUUUUCUCCUGUUUUUUCAACAGCUCGCAGUCAAG”, the binding signal (log2 fold change) is -0.112.

“GGUCACGUCUCAAUCAACUCAAUCCCAGGAGUUUCCUCCUGCAUUUUCAACAGCUCGCAGUCAAG”: the binding signal (log2 fold change) is -0.0288. With “GGUCACGUCUCAAUCAACUCUACGCCAGGAGUUUUCUCCUGUUAUUUCAACAGCUCGCAGUCAAG”, the binding signal (log2 fold change) was 0.147. With “GGUCACGUCUCAAUCAACUCUUUCUCAGGAGUUUACUCCUGCAAUUUCAACAGCUCGCAGUCAAG”, the binding signal (log2 fold change) was 0.112. With “GGUCACGUCUCAAUCAACUCUAGGUCAGGAGUUUCCUCCUGUAAUUUCAACAGCUCGCAGUCAAG”, the binding signal (log2 fold change) is -0.146. Under “GGUCACGUCUCAAUCAACUCACUAGAGGGGGGGAAAACCCCUUUGCCCUCACUUUCAACAGCUCGCAGUCAAG” stands -0.216; under “GGUCACGUCUCAAUCAACUCUUUUCCCAGGGAAAACCCUGGCUAACUCAACAGCUCGCAGUCAAG”, -0.101.

With “GGUCACGUCUCAAUCAACUCUACUCCCAGGGAAAGCCCUGGCUUUUUCAACAGCUCGCAGUCAAG”, the binding signal (log2 fold change) is -0.0809. As to “GGUCACGUCUCAAUCAACUCAAGUCCAGGAGUUUACUCCUGCUAUCUCAACAGCUCGCAGUCAAG”, the binding signal (log2 fold change) was 0.254. The same measure for “GGUCACGUCUCAAUCAACUCCCAAGAGGGGGGGAAAACCCCUUUACCCUCAAAUUCAACAGCUCGCAGUCAAG”: 0.0813.

On to “GGUCACGUCUCAAUCAACUCUUCCCCCAGGGAAAUCCCUGGUUAUCUCAACAGCUCGCAGUCAAG”, for which the binding signal (log2 fold change) worked out at 0.208.

Regarding “GGUCACGUCUCAAUCAACUCUAUCCCCAGGGAAAGCCCUGGUAAUCUCAACAGCUCGCAGUCAAG”, the binding signal (log2 fold change) is -0.293. For “GGUCACGUCUCAAUCAACUCAAUUUCCAGGGAAAUCCCUGGUUUUUUCAACAGCUCGCAGUCAAG”, the binding signal (log2 fold change) is -0.0357.

As to “GGUCACGUCUCAAUCAACUCAAUCCCAGGAGUUUACUCCUGUUAACUCAACAGCUCGCAGUCAAG”, the binding signal (log2 fold change) was -0.132. Turning to “GGUCACGUCUCAAUCAACUCACACGAGGGGGGGAAAACCCCUUUACCCUCAACUUCAACAGCUCGCAGUCAAG”, the binding signal (log2 fold change) is -0.107. On to “GGUCACGUCUCAAUCAACUCAUUCGAGGGGGGGAAAACCCCUUUACCCUCAUUCUCAACAGCUCGCAGUCAAG”, for which the binding signal (log2 fold change) is -0.37. For “GGUCACGUCUCAAUCAACUCAAUUUCCAGGGAAAUCCCUGGCUAACUCAACAGCUCGCAGUCAAG”, the binding signal (log2 fold change) stood at 0.199. Under “GGUCACGUCUCAAUCAACUCUAUCGCAGGAGUUUACUCCUGGUAUUUCAACAGCUCGCAGUCAAG” stands 0.0765; under “GGUCACGUCUCAAUCAACUCAUCUUCCAGGGAAAUCCCUGGUUAAUUCAACAGCUCGCAGUCAAG”, -0.0583. Under “GGUCACGUCUCAAUCAACUCAAUUCCCAGGGAAAGCCCUGGUUUUCUCAACAGCUCGCAGUCAAG” stands -0.0102. The same measure for “GGUCACGUCUCAAUCAACUCAAUCCCAGGAGUUUACUCCUGUUUUUUCAACAGCUCGCAGUCAAG”: 0.0279; for “GGUCACGUCUCAAUCAACUCAAUAGAGGGGGGGAAAACCCCUUUGCCCUCAAACUCAACAGCUCGCAGUCAAG”: 0.175.

For the sequence “GGUCACGUCUCAAUCAACUCUACUCCCAGGGAAACCCCUGGCUUACUCAACAGCUCGCAGUCAAG”, the binding signal (log2 fold change) is 0.229. Under “GGUCACGUCUCAAUCAACUCUACUUCCAGGGAAAUCCCUGGUUUUUUCAACAGCUCGCAGUCAAG” stands -0.107. Under “GGUCACGUCUCAAUCAACUCAACUCCCAGGGAAAACCCUGGUUAUUUCAACAGCUCGCAGUCAAG” stands -0.253.
